The campaign covered roughly 52,000 compounds. About 1,700 (3.3%) were called active. No stated cut-off is given here; in the data, active means survival mostly below about 52% (no sharp cut-off); inactive means mostly above about 56%. This is one part of the list.
tested on: Wild type; assay: S. aureus survival, RN4220 and DeltatarO strains – OD600, teichoic acid synthesis inhibitors, primary screen (AID 463173); settings: S. aureus RN4220 wild type/DeltatarO growth, OD600, 18 h, hits give low values, screened at 18.75 µg/mL (by protocol)

SMILES | survival
CC(C)(C)c1ccc(-c2nnc(-c3ccccc3NC(=O)c3cccc(C(F)(F)F)c3)o2)cc1 | inactive: 75%
Cc1ccc(C)c(Cn2c(=O)n(Cc3ccccc3)c(=O)c3sc4ccccc4c32)c1 | inactive: 86%
OCCNc1nc(N2CCOCC2)ncc1F | inactive: 85%
Cc1ccc(/C=C/c2onc(C)c2S(=O)(=O)N2CCC(C(=O)NCc3ccco3)CC2)cc1 | inactive: 83%
Cc1cc(C)cc(NS(=O)(=O)c2ccc(-c3cc(C)no3)cc2)c1 | inactive: 47%
Cc1ccc(CCNC(=O)c2ccc3c(c2)N(Cc2cc(C)ccc2C)C(=O)c2ccccc2S3=O)cc1 (configuration not stated) | inactive: 81%
CCN(CC)c1ccc(NC(=O)CN2C(=O)c3cccnc3Oc3ccccc32)c(C)c1 | inactive: 135%
COc1ccc2c(c1)NC(c1ccc(F)cc1)=NC(c1ccc(F)cc1)=N2 | inactive: 93%
CCCNC(=O)C1CCN(S(C)(=O)=O)CC1 | inactive: 107%
CCOC(=O)c1cccc(NS(=O)(=O)c2cc(Br)cc3c2N(C(=O)C2CC2)CC3)c1 | inactive: 151%
COc1cccc(N2CCN(C(=O)CN3CCSc4ccc(S(=O)(=O)N(C)C)cc43)CC2)c1 | inactive: 72%
COc1ccc(NC(=O)C2CCN(C3=NS(=O)(=O)C(c4ccc(C)c(C)c4)=C3C)CC2)cc1OC | inactive: 99%
COC(=O)c1ccc(OCC2c3cc(OC)c(OC)cc3CCN2C(=O)c2cccc(C)c2)cc1 (configuration not stated) | inactive: 110%
CCn1nnnc1SCC(=O)c1ccc(NC(C)=O)cc1 | inactive: 110%
COc1ccc(CNC(=O)CCS(=O)(=O)c2cc(Br)cc3c2N(C(=O)C2CC2)CC3)cc1 | inactive: 83%
CCCCN(Cc1ccccc1)S(=O)(=O)c1ccc2c(c1)CCN2C(=O)C1CCC1 | inactive: 74%
CCCCC(=O)Nc1ccc(NC(=O)C2CC2)nc1 | inactive: 101%
COc1cccc(CNC(=O)Cn2c(=O)n3nc(-c4cccc(C)c4)nc3c3ccccc32)c1 | inactive: 92%
O=C(Cn1nc(Cc2cccnc2)c2ccccc2c1=O)N1CCN(c2ccc(F)cc2)CC1 | inactive: 89%

SMILES | survival
COc1ccc(Nc2ncnc3onc(C)c23)cc1Cl | inactive: 85%
CCCSCCCNC(=O)C1CCCN(C(=O)c2cnn(-c3ccccc3)c2-n2cccc2)C1 (configuration not stated) | inactive: 107%
COCCCNC(=O)CCCN1C(=O)CCn2nc(-c3cn(C)c4ccccc34)cc21 | inactive: 78%
Cc1ccc(C)c(N2CCN(CCCNc3ncnc4onc(-c5ccc(Cl)cc5)c34)CC2)c1 | inactive: 75%
COc1ccc(-c2ccnc3c2c(=O)n(C)c(=O)n3C)cc1OC | inactive: 70%
CCN(C(=O)C(NS(=O)(=O)c1cccc2nsnc12)c1ccccc1)c1ccccc1 (configuration not stated) | inactive: 117%
COc1ccc(OC)c(CNC(=O)CCS(=O)(=O)c2ccc3c(c2)oc(=O)n3C)c1 | inactive: 72%
Cc1ccc(NC(=O)[C@H](CSCc2ccccc2)N2Cc3ccccc3C2=O)cc1 | inactive: 84%
Cc1ccc(C(=O)N2c3nc(-c4ccco4)nn3C3(CCCCC3)[C@@H]3CCCC[C@@H]32)cc1 | inactive: 77%
Cc1cc(Nc2ccc(C)c(Cl)c2)n2nc(-c3ccccc3)nc2n1 | inactive: 90%
Cc1cc(C)c(NC(=O)CN2C(=O)c3cccnc3Oc3ccc(Cl)cc32)c(C)c1 | inactive: 74%
O=C(Cc1ccc(Cl)cc1)NCCN1CCOCC1 | inactive: 124%
CC1CCN(S(=O)(=O)c2cccc(C(=O)NC3CCS(=O)(=O)C3)c2)CC1 (configuration not stated) | inactive: 81%
NC(=O)CCN1CCOCC1 | inactive: 102%
CSc1nc(NC(C)C)nc(N(C)C(N)=O)n1 | inactive: 122%
O=C(CSc1nnc(-c2cccnc2)o1)OC1CCCCC1 | inactive: 103%
O=C(CCNS(=O)(=O)c1cccc2nsnc12)Nc1ccc(F)cc1 | inactive: 64%
Cn1c(=O)c2c(-c3ccccc3)n3c(c2n(C)c1=O)C(c1cc(Cl)ccc1O)Nc1ccccc1-3 (configuration not stated) | active: -9%
COc1ccc(-c2nc3cc(NC(=O)COc4ccc(F)cc4)ccc3o2)cc1 | inactive: 87%

SMILES | survival
CN1/C(=N\N)c2cccc3cccc1c23 | inactive: 120%
COc1ccc(S(=O)(=O)N2CCC(C(=O)N3CCCC3)CC2)cc1OC | inactive: 107%
CN1C(=O)CSC1=Nc1cccc(C(=O)O)c1 | inactive: 104%
Cc1csc2nc(-c3cccc(NC(=O)c4ccc(S(N)(=O)=O)cc4)c3)cn12 | inactive: 124%
Cc1ccc2cccc(NC(=O)c3ccc(-c4ccc(Cl)cc4Cl)o3)c2n1 | inactive: 69%
COc1ccc(OC)c(CNC(=O)c2cc(=O)[nH]c3ccc(S(=O)(=O)N4CCCCC4C)cc23)c1 (configuration not stated) | active: 1%
COc1ccccc1/C=C(\C#N)c1nc(-c2cc3ccccc3oc2=O)cs1 | inactive: 81%
CCC(=O)Nc1ccc(S(=O)(=O)NCc2cccn2Cc2cccc(C)c2)cc1 | inactive: 87%
CCOc1ccc(-c2cc(C)n3nc(C(=O)Nc4cc(Cl)ccc4O)cc3n2)cc1 | inactive: 87%
COc1cccc(NC(=O)Cn2c(=O)n(Cc3nc(-c4ccccc4)no3)c(=O)c3ccccc32)c1 | inactive: 91%
O=C(NCCC1=CCCCC1)c1ccc2c(c1)ncn2-c1cccc(Cl)c1 | inactive: 73%
CCc1ccccc1NC(=O)CSc1ncc2c(n1)-c1ccccc1N(C)S2(=O)=O | inactive: 130%
Cc1ccc(C(=O)NC(C)C)cc1C | inactive: 110%
COc1ccc(S(=O)(=O)NCCc2sc(-c3ccccc3)nc2C)cc1OC | inactive: 78%
CCOC(=O)N1CCC(NC(=O)c2cnn(-c3ccccc3)c2C2CCN(C(=O)OC(C)(C)C)CC2)CC1 | inactive: 128%
COc1ccc(CNC(=O)CN2C(=O)COc3ccc(S(=O)(=O)N4CCCCCC4)cc32)cc1 | inactive: 87%
COC(=O)c1sccc1S(=O)(=O)N(CC(=O)Nc1cc(C)cc(C)c1)c1ccc(Cl)cc1 | inactive: 85%
COc1ccc(-n2c(SCC(=O)NCc3ccccc3)nc3ccsc3c2=O)cc1 | inactive: 85%
CC(C)C(=O)Nc1cccc(C(=O)Nc2nncs2)c1 | inactive: 99%

— PubChem BioAssay AID463173 (ICCB-Longwood Screening Facility, Harvard Medical School, 2010)
